Reference: publication PMC13083723 (Patterns, 2026)
Hit rate of the full screen: of about 5,400 compounds, about 190 (3.5%) showed an effect of 50% or more. The list shows a part of the results.

What follows are compounds tested on Vero-E6 (assay: primary screen, phospholipidosis by LipidTOX staining; higher = more effect of the substance). Details: 10 µM.
Method in brief: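 Single-concentration screen at 10 μM, with DMSO 0.1 v/v % and amiodarone 10 μM as controls. Read-out is LipidTOX Red phospholipid staining, which tolerates aldehyde fixation, in Vero-E6 cells.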

| Structure (SMILES) | result_ITMP [%] |
| --- | --- |
| CC(=O)N(O)[C@@H]1c2cc(C#N)ccc2OC(C)(C)[C@H]1O | -6.36 |
| O=C(CCc1ccc(O)cc1)c1c(O)cc(O)cc1O[C@@H]1O[C@H](CO)[C@@H](O)[C@H](O)[C@H]1O | -8.71 |
| CC1(C)[C@@H]2CC[C@@]1(C)C(=O)C2 [R4A_0000828_001 / SPE_K15714472] | -1 |
| CCS(=O)(=O)N(C)[C@@H]1c2cc(C#N)ccc2OC(C)(C)[C@H]1O.CCS(=O)(=O)N(C)[C@H]1c2cc(C#N)ccc2OC(C)(C)[C@@H]1O (racemic) | -1.89 |
| NC[C@@H]1O[C@H](O[C@H]2[C@@H](O)[C@H](O[C@@H]3[C@@H](O)[C@H](N)C[C@H](N)[C@H]3O[C@H]3O[C@H](CN)[C@@H](O)[C@H](O)[C@H]3N)O[C@@H]2CO)[C@H](N)[C@@H](O)[C@@H]1O | -2.72 |
| CC(C)(C)NCC(O)c1cc(Cl)c(N)c(C(F)(F)F)c1 (stereo not shown) | -1.04 |
| COC(=O)c1cccnc1 | 11.3 |
| O=C(O)CC(O)C(=O)O (stereo not shown) | 0.86 |
| COC[C@H](NC(=O)c1cnc(C)s1)C(=O)N[C@@H](COC)C(=O)N[C@@H](Cc1ccccc1)C(=O)C1(C)CO1 (stereo partly shown) | -1.49 |
| CCCCCCC[N+](CC)(CC)CCCCc1ccc(Cl)cc1 | 3.83 |
| CCOC(=O)C1=C[C@@H](OC(CC)CC)[C@H](NC(C)=O)[C@@H](N)C1 | -4.03 |
| C=CC(=O)Nc1cccc(C)c1Nc1ncc2cc(-c3c(Cl)c(OC)cc(OC)c3Cl)ccc2n1 | 1.86 |
| CCc1nc2ccc(Cl)cn2c1C(=O)NCc1ccc(N2CCC(c3ccc(OC(F)(F)F)cc3)CC2)cc1 | 0.2 |
| N=C(N)NC(=N)Nc1ccccc1 | -1.65 |
| Cc1cc2c(N3CCCC3)nc(N3CCCC3)nc2n1C | -3.77 |
| NCCNC(=O)c1ccc(Cl)cn1 | -5.66 |
| O=C(Nc1ccc(Cl)nc1)c1ccc(Cl)cc1 | -6.45 |
| Cc1ccc2c(Br)cc(Br)c(OC(=O)c3ccccc3)c2n1 | -2.36 |
| Cc1cccc(C(=O)O)c1O | -3.56 |
| O=C(Nc1ccccc1)Nc1ccc(-c2ccc(C(=O)[C@@H]3CCC[C@H]3C(=O)O)cc2)cc1 [R4A_0000400_001 / SPE_K81614372] | -1.59 |

| Structure (SMILES) | result_ITMP [%] |
| --- | --- |
| Cn1cc(C(=O)[C@@H]2CCc3nc[nH]c3C2)c2ccccc21 | 17.9 |
| Cc1ncc(CNC(=O)N(CCCl)N=O)c(N)n1 | -2.5 |
| Cn1cc(/C=C2/C(=O)Nc3cccnc32)c2ccccc21 | 2.75 |
| Oc1cccc(-c2c3nc(c(-c4cccc(O)c4)c4ccc([nH]4)c(-c4cccc(O)c4)c4nc(c(-c5cccc(O)c5)c5ccc2[nH]5)CC4)C=C3)c1 | -2.2 |
| Cn1nnc(-c2ccc(-c3ccc(N4C[C@H](COP(=O)(O)O)OC4=O)cc3F)cn2)n1 | 0.02 |
| CC(C)NC[C@@H](O)COc1cccc2ccccc12 [R4A_0000150_002 / SPE_K92830582] | 18.8 |
| Cc1nc(Nc2cnn(C3CCNCC3)c2)nc2c1N(C)C(=O)c1cc3ccccc3cc1N2C | 103 |
| OCCOCCN1CCN(C2=Nc3ccccc3Sc3ccccc32)CC1 | 22.1 |
| CC(C)N1Cc2cc(S(C)(=O)=O)ccc2N(CCN2CC=C(c3c[nH]c4cc(F)ccc34)CC2)S1(=O)=O | 31.4 |
| O=C(c1c2ccccc2cc2ccccc12)N1CCC(N2CCC[C@@H](C(=O)N3CCOCC3)C2)CC1 | 4.89 |
| COc1cccc2c1C(=O)c1c(O)c3c(c(O)c1C2=O)C[C@@](O)(C(=O)CO)C[C@@H]3O[C@H]1C[C@H](N)[C@H](O)[C@H](C)O1 | -5.89 |
| Cn1cnc2c(NCc3ccccc3)nc(NCCO)nc21 | -1.91 |
| Cc1cc(C(=O)NOCCO)c(Nc2ccc(I)cc2F)n(C)c1=O | 12 |
| CCOC(=O)C1=C(N)Oc2ccc(Br)cc2[C@H]1[C@H](C#N)C(=O)OCC | -5.02 |
| CC1(C)S[C@@H]2[C@H](NC(=O)[C@H](N)c3ccc(O)cc3)C(=O)N2[C@H]1C(=O)O | -0.12 |
| O=C(NC1CCNCC1)[C@@H]1CC[C@@H]2CN1C(=O)N2OS(=O)(=O)O | -2.11 |
| CC(C)(N)c1cc(C(=O)N[C@@H]2CCc3ccc(OC4=C5CCC(=O)N=C5NC=C4)cc3C2)cc(C(F)(F)F)c1 | 28.9 |
| CC(C)Cc1ccc(C(C)C(=O)NCCO)cc1 (stereo not shown) | -2.07 |
| N#Cc1c(O)c2c(-c3ccc(-c4ccccc4O)cc3)csc2[nH]c1=O | -2.22 |
| Cc1nc2ccc(-n3ncc(C(=O)c4cc5ccccc5[nH]4)c3N)cc2[nH]1 | -0.81 |
